# Test results as given in PubChem BioAssay (NCATS).
# “And” between values parts separate entries of the source, which are not always exact repeats. Equal values may be shown once. Inconclusive means that the source gave no clear call. Such entries were picked first, then a sample of the others. For some assays here: No potency is given beside an inconclusive call; the fits are too rough. The source made the active and inactive calls. Calls follow the shape of the dose curve; as a rule, active = well fitted curve in the direction sought with a large enough effect; inconclusive = small, poorly fitted or top-dose-only effect, or another doubt; inactive = no such curve, though single readings can be large; an effect the other way counts as inactive or inconclusive.
# Legend:
# [1] = system: Zika virus NS2B-NS3 protease (linked construct); assay: Primary screen NINDS Rhodamine qHTS for Zika virus inhibitors (AID 1347160); also: nearly all actives have a fitted effect of over 55% in size; also: potency is read from the fitted curve at half-maximal effect; as to activity change, negative = inhibition: % is scaled to controls: 0 for no effect and ±100 for the full control effect
# Method in brief: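 Purified NS2B-NS3 protease with the NS2B hydrophilic domain joined by a flexible linker (25 nM) in 10 mM Tris-HCl pH 8.0, 0.01% Tween 20, preincubated 15 min at RT with compound; Rhodamine110 peptide substrate 1.5 µM; fluorescence change over 15 min; 4-parameter Hill fit.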
# [2] = system: Zika virus NS2B-NS3 protease (linked); assay: 384 well plate NINDS AMC confirmatory qHTS for Zika virus inhibitors (AID 1347163); also: nearly all actives have a fitted effect of over 50% in size; also: potency is read from the fitted curve at half-maximal effect;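 as to activity change, negative = inhibition: linked protease at 5 30 or 60 nM final depending on run; fluorescence of AMC released from Ac-VKTGKR-AMC peptide cleaved by the protease; top concentration of the series differs between compounds; 0% = no-inhibitor control and -100% = no-enzyme control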
# Method in brief: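 Linked protease 5/30/60 nM final; cpds up to 1 mM final, ~15 min preinc. Substrate Ac-VKTGKR-AMC 30 microM final. RT, dark, 25 min; FI ex 355/em 460; normalized to no-enzyme/no-inhibitor ctrls.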
# [3] = system: Zika virus NS2B-NS3 protease (linked construct); assay: 384 well plate NINDS Rhodamine confirmatory qHTS for Zika virus inhibitors (AID 1347164);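 also: fluorescence from protease cleavage of Ac-LKRR-rhodamine 110 substrate; nearly all actives have a fitted effect of over 65% in size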; also: potency is read from the fitted curve at half-maximal effect;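 as to activity change, negative = inhibition: top concentration of the series differs between compounds; plate controls were no-inhibitor control for no effect and no-enzyme control for full effect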
# Method in brief: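 Enzyme (final 5/30/60 nM) + cpd (DMSO), ~15 min; add Ac-LKRR-Rd 10 microM final; 25 min RT, dark; FI ex 485/em 538; normalized to no-enzyme, no-inhibitor ctrls; aprotinin intraplate ctrl.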
# [4] = Tertiary RLuc qRT-PCR qHTS assay for Zika virus inhibitors (AID 1347169); also: nearly all actives have a fitted effect of over 55% in size; also: potency is read from the fitted curve at half-maximal effect; as to activity change, negative = inhibition: top concentration of the series differs between compounds; % is scaled to controls: 0 for no effect and ±100 for the full control effect
# Method in brief: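 Vero, 1,000 cells/well, o/n 37 C; cpd pinned in DMSO; ZIKV-RLuc Cambodian, MOI 1-2, 48-72 h 37 C; live-cell RLuc substrate, lum read at 1-1.5 h.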
# [5] = HepG2 cells viability qHTS for Zika virus inhibitors (AID 1347168); also: potency is read from the fitted curve at half-maximal effect; as to activity change, negative = cytotoxicity: % is scaled to controls: 0 for no effect and ±100 for the full control effect
# Method in brief: (§1)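 Counter-screen for cytotoxicity of hits from NS2B-NS3 protease qHTS. Overnight-attached cells (2.5 x 10^5 cells/mL, DMEM/4% FBS) were dosed in titration, incubated 24 to 48 hours, then assayed by CellTiter Glo.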
# [6] = Confirmatory screen NINDS Rhodamine qHTS for Zika virus inhibitors (AID 1347161); details: purified enzyme assay, Rhodamine110 substrate fluorescence, 15 min; activity change, negative = inhibition: at 114 µM (top of the series); also: nearly all actives have a fitted effect of over 60% in size; also: potency is read from the fitted curve at half-maximal effect;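 as to activity change, negative = inhibition: purified Zika NS2B-NS3 protease with linked NS2B cofactor domain and Rhodamine110 peptide substrate; plate controls were no-inhibitor control for no effect and no-enzyme control for full effect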
# Method in brief: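 Each compound, titrated, sat 15 min with 25 nM linked protease before 1.5 microM Rhodamine110 substrate went in. Fluorescence gain over the next 15 min, in pH 8.0 Tris with Tween 20, gave Hill-fitted curves.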
# [7] = system: Zika virus NS2B-NS3 protease (unlinked complex); assay: Primary screen GU Rhodamine qHTS for Zika virus inhibitors: Unlinked NS2B-NS3 protease assay (AID 1347159); also: nearly all actives have a fitted effect of over 60% in size; also: potency is read from the fitted curve at half-maximal effect; as to activity change, negative = inhibition: % is scaled to controls: 0 for no effect and ±100 for the full control effect
# Method in brief: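 Noncovalent NS2B hydrophilic domain/NS3 protease complex (25 nM final) in 10 mM Tris-HCl pH 8.0, 0.01% Tween 20, preincubated 15 min with compounds (up to 114 microM), then 1.5 microM Rhodamine110 substrate. Fluorescence change over 15 min fitted to 4-parameter Hill.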
# [8] = Vero cells viability qHTS for Zika virus inhibitors (AID 1347167); details: cytotoxicity counter-screen (Zika); also: potency is read from the fitted curve at half-maximal effect
# Method in brief: as §1
# [9] = molecular target: Lysine-specific demethylase 5B (Homo sapiens) (UniProt Q9UGL1); assay: Optimization screen for KDM5B Histone Demethylases FDH coupled qHTS against the LOPAC library (AID 1347166); also: potency is read from the fitted curve at half-maximal effect
# Chain of UniProt Q9UGL1 (Q9UGL1 whole entry, looked up): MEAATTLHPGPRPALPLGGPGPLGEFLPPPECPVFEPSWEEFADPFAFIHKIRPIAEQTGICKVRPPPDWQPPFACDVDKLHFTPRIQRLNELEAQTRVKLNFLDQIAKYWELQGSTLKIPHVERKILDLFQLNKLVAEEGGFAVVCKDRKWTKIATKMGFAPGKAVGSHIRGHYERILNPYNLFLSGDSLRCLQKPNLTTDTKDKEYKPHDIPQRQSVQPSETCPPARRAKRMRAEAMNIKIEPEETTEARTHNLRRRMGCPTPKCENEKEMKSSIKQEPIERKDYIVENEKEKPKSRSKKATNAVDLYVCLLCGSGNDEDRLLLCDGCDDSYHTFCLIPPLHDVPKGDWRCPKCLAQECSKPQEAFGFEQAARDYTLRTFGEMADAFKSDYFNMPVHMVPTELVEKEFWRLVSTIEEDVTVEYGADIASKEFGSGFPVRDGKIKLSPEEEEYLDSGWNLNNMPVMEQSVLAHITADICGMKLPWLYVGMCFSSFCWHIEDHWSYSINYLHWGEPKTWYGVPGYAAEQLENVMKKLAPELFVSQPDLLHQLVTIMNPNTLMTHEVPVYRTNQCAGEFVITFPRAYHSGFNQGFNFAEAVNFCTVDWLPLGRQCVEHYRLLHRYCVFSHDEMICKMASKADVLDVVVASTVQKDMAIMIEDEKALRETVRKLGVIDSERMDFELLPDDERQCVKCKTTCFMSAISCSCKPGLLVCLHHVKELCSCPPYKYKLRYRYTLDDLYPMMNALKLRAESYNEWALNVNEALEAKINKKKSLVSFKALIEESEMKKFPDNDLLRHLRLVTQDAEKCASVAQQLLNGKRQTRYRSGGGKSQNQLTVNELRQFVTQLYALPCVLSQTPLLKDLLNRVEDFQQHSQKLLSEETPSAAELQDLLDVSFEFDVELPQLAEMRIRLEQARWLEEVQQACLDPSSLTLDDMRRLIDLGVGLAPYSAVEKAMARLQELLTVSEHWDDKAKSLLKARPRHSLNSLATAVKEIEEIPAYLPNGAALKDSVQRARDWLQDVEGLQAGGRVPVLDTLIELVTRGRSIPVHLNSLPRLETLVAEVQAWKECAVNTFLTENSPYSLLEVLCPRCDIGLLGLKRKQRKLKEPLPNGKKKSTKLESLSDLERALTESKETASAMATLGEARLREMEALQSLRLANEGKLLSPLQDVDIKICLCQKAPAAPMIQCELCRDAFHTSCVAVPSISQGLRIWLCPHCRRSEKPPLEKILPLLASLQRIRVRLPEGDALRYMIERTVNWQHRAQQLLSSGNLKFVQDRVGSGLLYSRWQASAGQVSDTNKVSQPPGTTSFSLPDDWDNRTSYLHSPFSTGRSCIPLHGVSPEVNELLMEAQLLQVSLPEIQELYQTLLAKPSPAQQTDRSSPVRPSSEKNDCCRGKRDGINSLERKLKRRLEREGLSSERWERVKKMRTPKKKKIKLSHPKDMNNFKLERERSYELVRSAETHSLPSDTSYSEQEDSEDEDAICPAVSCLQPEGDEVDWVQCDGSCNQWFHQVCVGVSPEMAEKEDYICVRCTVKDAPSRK
# Method in brief: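 KDM5BDeltaAP (200nM final) preincubated 10 min with compound, then 12.5uM H3K4Me3, 25uM a-ketoglutarate, ascorbate, Fe(II), NAD+ and FDH added; 50mM HEPES pH 7.5, 0.01% Tween-20. NADH fluorescence (340/450 nm) change over 30 min, room temperature.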
# [10] = UWB1.289 Cancer Cell Toxicity qHTS against the NCATS CANVASS Library (AID 1347347); details: UWB1.289 viability, CellTiter-Glo luminescence, 72 h; at 38.3 µM (top of the series); also: % is scaled to controls: 0 for no effect and ±100 for the full control effect; nearly all actives have a fitted effect of over 60% in size
# Method in brief: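 ATP content after 72 h treatment, detected by CellTiter-Glo luminescence (15min room-temperature development), reflects cell viability. Wells contained 1000 cells and received compounds at 11 concentrations.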
# Tags tell the direction and shape of the fitted curve.
structure (smiles),measurement,setting,value
CC(C)(C)c1nc(-c2cccc(NS(=O)(=O)c3c(F)cccc3F)c2F)c(-c2ccnc(N)n2)s1,Potency,[1],"inconclusive [inhibitor, partial curve]"
CC1CCC(C(=O)N(c2cc(C#CC(C)(C)C)sc2C(=O)O)C2CCC(O)CC2)CC1 (configuration not stated),Potency,[1],"inconclusive [inhibitor, partial curve, poor fit]"
same,Potency,[2],"inconclusive [inhibitor, partial curve, poor fit]"
same,Potency,[3],"inconclusive [inhibitor, full curve, poor fit]"
same,Potency,[4],"inconclusive [inhibitor, partial curve, poor fit]"
CC1(C)[C@H](C(=O)O)N2C(=O)C[C@H]2S1(=O)=O,Potency,[1],inactive
COc1cc(Nc2nc3ccccc3nc2NS(=O)(=O)c2ccc(NC(=O)c3ccc(C)c(OC)c3)cc2)cc(OC)c1,Potency,[1],active: 3.16 µM
same,Potency,[2],inactive
same,Potency,[5],inactive
same,Potency,[4],"inconclusive [inhibitor, full curve]"
NC(=O)c1ccc2nc(-c3ccc(Oc4ccc(Cl)cc4)cc3)[nH]c2c1,Potency,[1],"inconclusive [inhibitor, single point]"
same,Potency,[6],"inconclusive [inhibitor, single point]"
same,Potency,[2],"inconclusive [inhibitor, partial curve, poor fit]"
same,Potency,[4],"inconclusive [inhibitor, partial curve]"
Cc1nc(C(=O)NCC(=O)O)c(O)c2ccc(Oc3ccccc3)cc12,Potency,[7],active: 22.4 µM
same,Potency,[6],"inconclusive [inhibitor, partial curve]"
Cc1c(C)n(Cc2ccc(-c3ccccc3C(=O)O)cc2)c2ccc(C(=O)N[C@@H](C)c3ccc([N+](=O)[O-])cc3)cc12,Potency,[1],"inconclusive [inhibitor, full curve]"
same,Potency,[6],active: 3.12 µM
same,Potency,[4],"inconclusive [inhibitor, partial curve]"
Cc1ccc(Nc2cc(-c3cccc(N4C(=O)c5ccccc5C4=O)c3)ncn2)cc1NS(C)(=O)=O,Potency,[1],inactive
Cc1nc(Nc2ncc(C(=O)Nc3c(C)cccc3Cl)s2)cc(N2CCN(CCO)CC2)n1,Potency,[1],inactive
same,Potency,[3],"inconclusive [inhibitor, full curve, poor fit]"
same,Potency,[8],active: 282 µM
same,Potency,[5],active: 79.4 µM
same,Potency,[4],active: 0.224 µM
Cc1cccc2c1CC[C@H](CN1CCC(c3c(Cl)cccc3Cl)CC1)C[C@@H]2O,Potency,[1],inactive
COc1ccc2cc(-c3nc(-c4ccc(S(C)=O)cc4)[nH]c3-c3ccncc3)ccc2c1 (configuration not stated),Potency,[6],"inconclusive [inhibitor, single point]"
same,Potency,[5],"inconclusive [cytotoxic, partial curve, poor fit]"
same,Potency,[4],"inconclusive [inhibitor, partial curve]"
C[C@]12CC[C@H](O)CC1=CCC1C2CC[C@]2(C)C(n3cnc4ccccc43)=CCC12 (some centres not stated),Potency,[1],"inconclusive [inhibitor, single point]"
COc1nccc(-c2c(-c3ccc(F)cc3)ncn2C2CCNCC2)n1,Potency,[7],inactive
CCOC(=O)Nc1ccc(NCc2ccc(F)cc2)nc1N,Potency,[6],inactive
same,Potency,[9],"inconclusive [inhibitor, partial curve, poor fit]"
Cc1coc2c1C(=O)C(=O)c1c-2ccc2c1CCCC2(C)C,Potency,[1],active: 14.1 µM
CCNC(=O)Nc1ccc2ncc(Nc3ccc(C)cc3)nc2n1,Potency,[7],active: 25.1 µM
same,Potency,[1],active: 35.5 µM
CC1(C)Cc2c(-c3ccccc3)c(-c3ccc(Cl)cc3)c(CC(=O)O)n2C1,Potency,[1],"inconclusive [inhibitor, single point]"
CC(C)(C)NC(=O)Nc1cccc(Nc2ncc(F)c(NC(C)(C)CO)n2)c1,Potency,[1],inactive
N[C@@H](Cc1cc(I)c(Oc2cc(I)c(O)c(I)c2)c(I)c1)C(=O)O,Potency,[1],active: 6.31 µM
same,Potency,[6],active: 9.67 µM and active: 12.6 µM
same,Potency,[2],inactive
same,Potency,[5],"inconclusive [rising, full curve, poor fit]"
same,Potency,[4],"inconclusive [inhibitor, full curve]"
Cc1cc(C(=O)N2CCN(c3cccc(Cl)c3)CC2)n(-c2ccccc2)n1,Potency,[1],"inconclusive [inhibitor, full curve, poor fit]"
O=C(O)CCn1c2c(c3ccccc31)C[C@H](NS(=O)(=O)c1ccc(F)cc1)CC2,Potency,[1],inactive
O=C(O)c1cn(-c2ccc(F)cc2)c2cc(N3CCNCC3)c(F)cc2c1=O,Potency,[6],"inconclusive [inhibitor, partial curve]"
same,"activity change, negative = inhibition",[6],inconclusive: -31.4% [inhibitor]
CN(C)C(=O)[C@H](O)[C@H](Cc1ccccc1)NC(=O)c1cc2cc(Cl)ccc2[nH]1,Potency,[6],"inconclusive [inhibitor, partial curve, poor fit]"
same,Potency,[4],inactive
CNC(=O)c1ccc(-c2cnc3ncc(Cc4ccc5ncccc5c4)n3n2)cc1F,Potency,[1],"inconclusive [inhibitor, full curve]"
Cc1ccc2c(c1)C(=O)[C@]1(O)CCN(c3ccccc3)C1=N2,Potency,[1],"inconclusive [inhibitor, full curve]"
CC(C)(C)c1cc(C(=O)O)c(NC(=O)Nc2ccc3[nH]ncc3c2)s1,Potency,[1],"inconclusive [inhibitor, partial curve, poor fit]"
CO[C@H]1C=CO[C@@]2(C)Oc3c(C)c(O)c4c(O)c(c5c(c4c3C2=O)NC2(CCN(CC(C)C)CC2)N=5)=NC(=O)C(C)=CC=C[C@H](C)[C@H](O)[C@@H](C)[C@@H](O)[C@@H](C)[C@H](OC(C)=O)[C@H]1C,Potency,[1],inactive
Oc1ccc(-c2nc(-c3ccc(F)cc3)c(-c3ccncc3)[nH]2)cc1,Potency,[6],inactive
same,Potency,[9],"inconclusive [inhibitor, partial curve, poor fit]"
same,Potency,[4],"inconclusive [inhibitor, partial curve]"
COc1cc2nc(N3CCN(C(=O)c4ccco4)CC3)nc(N)c2cc1OC,Potency,[6],inactive
same,Potency,[9],"inconclusive [inhibitor, partial curve, poor fit]"
same,Potency,[4],"inconclusive [inhibitor, single point]"
CC1(C)CCC(CN2CCN(c3ccc(C(=O)NS(=O)(=O)c4ccc(NCC5CCOCC5)c([N+](=O)[O-])c4)c(Oc4cnc5[nH]ccc5c4)c3)CC2)=C(c2ccc(Cl)cc2)C1,Potency,[3],inactive
C[C@H]1c2cccc(O)c2C(O)=C2C(=O)[C@]3(O)C(O)=C(C(N)=O)C(=O)[C@@H](N(C)C)[C@@H]3[C@@H](O)[C@@H]21,Potency,[3],"inconclusive [inhibitor, single point]"
O=C(O)C(O)Cc1ccc(O)c(O)c1 (configuration not stated),"activity change, negative = cytotoxicity",[10],inactive: 0.961%
